Test results taken from ChEMBL document CHEMBL4888484, “Replenishing the malaria drug discovery pipeline: Screening and hit evaluation of the MMV Hit Generation Library 1 (HGL1) against asexual blood stage Plasmodium falciparum ,using a nano luciferase reporter read-out” (2022).
The campaign covered roughly 150,000 compounds. About 540 (0.36%) showed an effect of 50% or more. The list shows a part of the results.

System: Plasmodium falciparum
Experiment: Primary screen in NF54 nanoGlo assay, in single point, at 2uM, 72h; a lower Z score goes with more inhibition
Type: functional, Erythrocyte
Conditions: timepoint 72 hour

Row | Structure (SMILES) | % Inhibition [%] | Z score
1 | Cc1ccc(C(=O)Nc2ccc(-n3cncn3)nc2)s1 | -16 | 1.85
2 | Cc1nc(C2(C)CCN(C(=O)CCC(=O)n3nc(C)c4ccccc43)CC2)no1 | -5 | 0.65
3 | COc1cccc(CN2CCC3(CCC(=O)N(CCc4c[nH]cn4)C3)CC2)c1 | -1 | 0.14
4 | Cc1ccccc1CC(=O)N1CCC[C@H](c2nc(O)c3nnn(Cc4ccc(F)cc4)c3n2)C1 | -15 | 1.32
5 | CCOc1ccc(-c2nn3c(nc2=O)-c2ccccc2N[C@@H]3C(=O)O)cc1 | 0 | -0.03
6 | OCc1ccc(Cl)c(NCc2csc(-c3ccccn3)n2)c1 | 2 | -0.27
7 | O=C(Cc1cncs1)N1CCC[C@@H]1CF | -3 | 0.49
8 | Cn1cc(C(NC(=O)N2CCOC(CO)C2)C(F)(F)F)cn1 (stereo not given) | -13 | 1.69
9 | COc1ccc(S(=O)(=O)N2CCN(c3ccnc(N4CCCC4)n3)CC2)cc1 | -10 | 1.78
10 | CCc1c(C)nc(-c2cccc(C)c2)nc1N1CCN(S(=O)(=O)c2ccc(C)cc2)CC1 | -16 | 1.61
11 | COCCn1cnnc1CCn1cnc(-c2ccccc2)c1-c1c[nH]c(C)n1 | 0 | 0.05
12 | CC1CCCC(NS(=O)(=O)Cc2ccccc2)C1C (stereo not given) | -7 | 0.9
13 | COc1cccc(CN(Cc2ncc(C3OCCO3)s2)C2CCC(O)CC2)c1 (stereo not given) | -7 | 0.61
14 | COc1nc(-c2ccc(C(=O)N3CCC(=O)NC[C@@H]3C)cc2)ncc1F | -4 | 0.41
15 | COc1ccc(C(=O)N2C[C@@H](C(=O)N3CCCC3)[C@H](c3cccnc3)C2)cc1 | -1 | 0.14
16 | CC(=O)c1ccc(N2CCOCC2)c(C[C@@H]2COc3ccccc3C2)c1 | -14 | 2.42
17 | O=C(NC1CC1c1cccc(F)c1)NC1CCCC2OCCC12 (stereo not given) | -3 | 0.25
18 | CS(=O)(=O)N(CC(=O)NC1CC2CCC1C2)c1ccc(Oc2ccccc2)cc1 (stereo not given) | 7 | -1
19 | CCc1nc(N2C[C@H](C)[C@@](O)(C3CC3)C2)ncc1C | -24 | 2.15
20 | Cc1cccc(CNC(=O)[C@@H]2CCCO2)c1Br | -5 | 0.52
21 | Cc1ccc(NC(=O)Cn2cc(S(=O)(=O)N3CCCCCC3)ccc2=O)c(C)c1 | -2 | 0.3
22 | CCCc1nc(N2CCN(C(=O)c3ccc(Cl)c(Cl)c3)CC2)c2c(-c3ccccc3)noc2n1 | 1 | -0.07

Row | Structure (SMILES) | % Inhibition [%] | Z score
23 | COc1cccc2c1nc(NC(=O)[C@H](C1CC1)N1CCCC1)n2C | 0 | 0.03
24 | CCc1ncc(C(=O)N2CC[C@@]3(C2)C(=O)N(CC(N)=O)c2ccccc23)cn1 | -3 | 0.56
25 | COc1cccc2c1CCCCN2C(=O)[C@H]1CC(=O)N(C2CC2)C1 | -5 | 0.72
26 | O=C(NCCNc1ncccn1)C1CC2CCC1C2 (stereo not given) | -4 | 0.73
27 | O=C(c1cccc(-c2cc(O)c(F)c(F)c2)c1)N1CCC[C@@]2(CCNC2)C1 | -5 | 0.5
28 | CC(C)n1ncnc1NC(=O)N1Cc2ccc(Cl)cc2C1 | 3 | -0.6
29 | Cc1ccsc1-c1cccc(C(=O)N(C)C[C@H]2COCCO2)c1 | -2 | 0.48
30 | Cc1[nH]c2c(c1C(=O)NCc1noc(C3CC3)n1)C(=O)CCC2 | 3 | -0.44
31 | CN(C)C(=O)C1C[C@@H]2OCC[C@@H]2N1C(=O)CCc1cccnc1 (stereo not given in full) | 0 | 0.02
32 | CC1CC(N(C)Cc2cccc(Cl)c2)C(=O)O1 (stereo not given) | 37 | -3.77
33 | COCC(=O)N1CC[C@H](Nc2nc(C(C)C)ccc2C#N)[C@@H](O)C1 | 1 | -0.29
34 | O=C(Nc1ccc2c(c1)OCO2)N1CC(OC[C@H]2CCOC2)C1 | 7 | -0.94
35 | O=C(c1ccc(Cl)cc1-n1cnnn1)N1CCC[C@H]1c1nc2ccccc2[nH]1 | -6 | 0.74
36 | CCCn1cc(CN(C)Cc2nncn2C)c(C)n1 | 7 | -0.95
37 | CC(C)(C)[C@H](NS(=O)(=O)Cc1ccon1)c1ccco1 | 7 | -0.69
38 | Cc1cc(NC(=O)N[C@@H](C)Cc2ccco2)n(C)n1 | -7 | 1.41
39 | O=C(c1cccnc1)N(Cc1ccco1)Cc1cc2ccccc2[nH]c1=O | 30 | -3.38
40 | C[C@H](Nc1cnn(CC(F)F)c1)c1nc(C2CC2)no1 | -4 | 0.45
41 | Cc1ccc(Nc2nc(C(=O)NCc3cccnc3)cs2)c(C)c1 | -2 | 0.25
42 | O=C(c1cccc(C(F)(F)F)c1)N1CC(CN2CCCCC2)C(c2cccc(C(F)(F)F)c2)C1 (stereo not given) | 2 | -0.25
43 | Cc1ccc(C(=O)N2Cc3c(-c4ccncc4)nc(N)nc3[C@@H]2C)c(=O)[nH]1 | 13 | -1.85
44 | CCOc1ccc(CNC(=O)CNC2=NS(=O)(=O)C(c3ccc(C)cc3)=C2CC)cc1OC | -9 | 1.44

Row | Structure (SMILES) | % Inhibition [%] | Z score
45 | Cc1cc(C)c2c(c1)CCN(c1nc(N)c3cnn(C)c3n1)C2 | -4 | 0.48
46 | Cc1cc(C(=O)N2CCCCCCC2)no1 | -14 | 2.04
47 | NC(=O)c1ccc(CN2CCN(c3cncc4ccccc34)CC2)cc1 | 0 | 0.06
48 | CO[C@H]1COCC[C@@H]1Nc1nnnn1-c1ccccc1 | -7 | 1.28
49 | COc1cc2ccccc2cc1[C@@H]1CCCCN1 | -11 | 1.33
50 | CC[C@H](NCc1nc(C(F)(F)F)cs1)c1c(C)noc1C | -11 | 1.06
51 | CCN1CCC[C@@H]1CNC(=O)Nc1c(-c2ccccc2OC)c(C)nn1C | -14 | 2.05
52 | CC(=O)Nc1ccc(CN2CC[C@H](C)S(=O)(=O)CC2)cc1 | -15 | 1.55
53 | CN(Cc1nccn1C)c1ccc(F)cn1 | -6 | 0.61
54 | CCCCc1cc(C[C@H]2CNCC[C@H]2CC(=O)N2CCCCC2)no1 | -16 | 3.1
55 | CN1CCN(c2nc3c(s2)CN(C(=O)c2ccncc2)CC3)CC1 | -24 | 3.19
56 | COCc1nc(C)c(C(=O)OCC2(O)CCC2)s1 | 9 | -1.35
57 | CC[C@@H](CO)N(CC1=CCCN(Cc2ccccn2)C1)C(C)=O | -6 | 0.63
58 | Cn1ccc(NC(=O)NCCc2csc(-c3ccccc3)n2)n1 | -10 | 1.44
59 | COc1cc2nc(C)sc2cc1NC(=O)N(C)C1CC2CCC(C1)N2C (stereo not given) | -8 | 1.58
60 | CC1CCN(C[C@H]2CCCN(C(=O)CC3CCCC3)CC2)CC1 | -6 | 0.87
61 | Cc1ccccc1NCCCNc1ccccc1C | -12 | 1.59
62 | Cc1nccn1CCCC(=O)N(Cc1ccco1)c1ccc(F)cc1 | -6 | 0.89
63 | CCCc1nccn1Cc1ccc(Cl)s1 | 1 | -0.07
64 | CN1CCN(C[C@@H]2OC[C@H](NS(=O)(=O)c3ccccc3)[C@H]2O)CC1 | -1 | 0.2
65 | Cn1nc(-c2cnccn2)cc1CNC(=O)Cc1ccsc1 | 15 | -1.97
66 | CCc1ccc(O)c(C(=O)N2CCC(C(=O)N3CC(C)OC(C)C3)CC2)c1 (stereo not given) | 3 | -0.33

Row | Structure (SMILES) | % Inhibition [%] | Z score
67 | Cc1ccc(F)cc1CN1CCC(C(=O)NC2CC2)CC1 | -11 | 1.29
68 | COCc1ncc(C(=O)N2CC(Cc3ccoc3)C2)s1 | -1 | 0.08
69 | CN1CCC(N(C[C@H]2CCOC2)C(=O)c2cccc(F)c2)CC1 | 9 | -1.17
70 | CCn1ncc2ccc(N[C@@H](C)C3(O)CCOCC3)cc21 | 38 | -1.11
71 | NC(=O)C1CCN([C@H]2CS(=O)(=O)C[C@@H]2S(=O)(=O)c2ccc(Cl)cc2)CC1 | 1 | -0.14
72 | Cc1ccc(-c2nccn2[C@H](C(N)=O)C(C)C)c(Cl)c1Cl | -7 | 1.01
73 | Cn1c([C@H]2CCN(C(=O)c3cnccn3)C2)nc2ccccc21 | -9 | 1.14
74 | CCN(CC(=O)Nc1ccc(OC)cc1)CC(=O)Nc1cccc(S(=O)(=O)N2CCOCC2)c1 | 6 | -0.7
75 | CC(C)Cc1ccccc1CNC(=O)Nc1cc([C@H]2CCCOC2)nn1C | -9 | 1.23
76 | CN(C)S(=O)(=O)c1cccc(C(=O)N2CCC[C@H](OCC3CC3)C2)c1 | -3 | 0.65
77 | Nc1nnc(C2CCN(Cc3c(F)cccc3F)CC2)o1 | 11 | -1.23
78 | COc1ccc(-c2cc(C(=O)OC[C@H]3CCCO3)c3ccccc3n2)cc1 | -3 | 0.5
79 | O=S(=O)(c1ccc(Cl)s1)n1ccnc1 | -3 | 0.48
80 | O=C(NCc1ccc(C(=O)N2CCN(c3nccs3)CC2)cc1)c1cccs1 | -8 | 1.57
81 | Cc1ccc2c(c1)-c1c(ssc1=S)C(C)(C)N2CC(=O)c1ccccc1 | -5 | 0.56
82 | CCOc1ccc(NC(=O)c2c(-c3ccccc3)nnc3ccc(C)cc23)cc1 | 2 | -0.27
83 | COc1ccccc1-c1cnoc1-c1ccc(OCc2ccc(C)cc2)cc1O | 7 | -1.06
84 | Cn1cc(-c2ccc(Cl)cc2)c2ncn(CC(=O)NC3CCCC3)c(=O)c21 | 30 | -3.99
85 | CN1CCCN(C(=O)c2cccnc2Oc2cccc(Br)c2)CC1 | -3 | 0.57
